# Assay results as given in a collection of fitness landscapes (doi:10.1038/s41467-024-54723-y).
# In all, about 18,000 sequences were measured (“TetR repression strength (sort-seq, GFP reporter)”: median about 0.23, highest 2% from about 0.68 on). This is one part of the list.
# Molecular target: TetR (class B, Tn10) (UniProt P04483)
# Assay: TetR repression strength (sort-seq, GFP reporter) (relative to tetO2 = 1); higher = stronger repression
# Conditions: E. coli
# Outline: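 Repression strength was calculated by subtracting the read-weighted mean bin from the top bin index plus one and dividing by the unaltered operator's value. The plasmid library was low-copy in E. coli SIG10-MAX, with eight randomized operator positions between a constitutive promoter and sfGFP and constitutive TetR. Cultures grew 5 h at 37 °C in LB containing 50 µg/mL chloramphenicol before 10^6 cells were sorted by FACS into 13 fluorescence bins, each sequenced on Illumina. Three independent transformations were averaged for members having ≥30 reads in all replicates and a CV ≤0.5.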
# Sequence of UniProt P04483 (P04483 whole entry): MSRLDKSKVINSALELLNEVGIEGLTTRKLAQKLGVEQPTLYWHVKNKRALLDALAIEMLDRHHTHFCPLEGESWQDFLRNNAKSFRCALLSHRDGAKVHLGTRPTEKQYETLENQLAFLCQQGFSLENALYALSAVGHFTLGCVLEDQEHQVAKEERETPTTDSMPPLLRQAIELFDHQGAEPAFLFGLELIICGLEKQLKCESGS
row,Sequence,TetR repression strength
1,TCCCTTCCAGTGCGCGAGA,0.322
2,TCCCGCACAGTTGGCGAGA,0.0921
3,TCCCCACTAGTGCAAGAGA,0.438
4,TCCCGGAAAGTGGCCGAGA,0.253
5,TCCCGATGAGTTATCGAGA,0.207
6,TCCCTGCTAGTGAAGGAGA,0.649
7,TCCCATCCAGTTCGGGAGA,0.241
8,TCCCTGTAAGTCTCGGAGA,0.314
9,TCCCTTTCAGTCCTGGAGA,0.262
10,TCCCCCGAAGTGTCCGAGA,0.329
11,TCCCAATAAGTGCATGAGA,0.189
12,TCCCGGACAGTTGGGGAGA,0.922
13,TCCCTTGTAGTGGGTGAGA,0.122
14,TCCCGGAAAGTTTGGGAGA,0.523
15,TCCCATGTAGTGTGGGAGA,0.203
16,TCCCATTTAGTACGTGAGA,0.271
17,TCCCATGCAGTGTAAGAGA,0.0957
18,TCCCAGCTAGTGGTTGAGA,0.0377
19,TCCCGTTCAGTTGAGGAGA,0.282
20,TCCCGGTCAGTAGGCGAGA,1.01
21,TCCCTGGCAGTTCATGAGA,0.199
22,TCCCAAATAGTTCGGGAGA,0.513
23,TCCCTGATAGTCGAAGAGA,1.14
24,TCCCCTCGAGTGCCTGAGA,0.264
25,TCCCATACAGTCGAGGAGA,0.247
26,TCCCAATCAGTAGGGGAGA,0.254

row,Sequence,TetR repression strength
1,TCCCGGTAAGTGGACGAGA,0.148
2,TCCCAAGTAGTCACAGAGA,0.231
3,TCCCGCCCAGTACGCGAGA,0.304
4,TCCCGTAAAGTGGGGGAGA,0.107
5,TCCCGCGTAGTAACCGAGA,0.179
6,TCCCCCGTAGTTGTTGAGA,0.192
7,TCCCACTAAGTGGATGAGA,0.0817
8,TCCCTAGTAGTGATCGAGA,0.37
9,TCCCCGCTAGTGTGAGAGA,0.492
10,TCCCCATCAGTAAGTGAGA,0.289
11,TCCCGGGCAGTACTGGAGA,0.444
12,TCCCTTTGAGTGGAGGAGA,0.102
13,TCCCGCTAAGTGCGAGAGA,0.155
14,TCCCATGCAGTAGAGGAGA,0.184
15,TCCCGTGGAGTTGTGGAGA,0.0653
16,TCCCCAGGAGTCGTCGAGA,0.438
17,TCCCGCCTAGTATCAGAGA,0.266
18,TCCCGGGGAGTGGGTGAGA,0.298
19,TCCCTATAAGTGAGGGAGA,0.237
20,TCCCCTGGAGTATTTGAGA,0.253
21,TCCCGAGGAGTTAGTGAGA,0.397
22,TCCCCTTGAGTGAGGGAGA,0.308
23,TCCCCATGAGTGACAGAGA,0.399
24,TCCCAAGCAGTGAGTGAGA,0.334
25,TCCCGGTGAGTGATTGAGA,0.388
26,TCCCCCGAAGTGGCGGAGA,0.17

row,Sequence,TetR repression strength
1,TCCCGGGTAGTGGACGAGA,0.231
2,TCCCCAGGAGTGTTCGAGA,0.253
3,TCCCAGGAAGTTGAGGAGA,0.218
4,TCCCTACAAGTCGGTGAGA,0.244
5,TCCCACATAGTTGCCGAGA,0.254
6,TCCCGCCCAGTATGGGAGA,0.352
7,TCCCGTGCAGTTGCCGAGA,0.0811
8,TCCCTGGTAGTAGGAGAGA,0.189
9,TCCCGGACAGTTGACGAGA,0.0179
10,TCCCCCCCAGTGTGGGAGA,0.268
11,TCCCGTTGAGTGTTCGAGA,0.159
12,TCCCCCACAGTTATAGAGA,0.524
13,TCCCAAGAAGTGCTGGAGA,0.21
14,TCCCCTTGAGTCACTGAGA,0.23
15,TCCCCCGGAGTCAGGGAGA,0.207
16,TCCCGGAGAGTGATGGAGA,0.325
17,TCCCTGTGAGTGGCGGAGA,0.201
18,TCCCAGGTAGTTTCGGAGA,0.232
19,TCCCAGTGAGTGGTCGAGA,0.243
20,TCCCAAGAAGTTCTCGAGA,0.228
21,TCCCGTAAAGTTTCAGAGA,0.265
22,TCCCGGCTAGTAAATGAGA,0.464
23,TCCCAGGTAGTGGATGAGA,0.0304
24,TCCCACTAAGTGGGGGAGA,0.104
25,TCCCTAGCAGTGTGAGAGA,0.276
26,TCCCGAGTAGTTCGTGAGA,0.0491

row,Sequence,TetR repression strength
1,TCCCGTCTAGTGGGCGAGA,0.259
2,TCCCCCTTAGTTCGTGAGA,0.318
3,TCCCGAAGAGTGGGGGAGA,0.118
4,TCCCTGCGAGTTGGCGAGA,0.191
5,TCCCGGGGAGTACCGGAGA,0.0858
6,TCCCATGGAGTAACTGAGA,0.164
7,TCCCAGACAGTGGTGGAGA,0.284
8,TCCCACTTAGTTTAGGAGA,0.227
9,TCCCCAAGAGTGGAGGAGA,0.0159
10,TCCCACGTAGTAGTGGAGA,0.0545
11,TCCCATGGAGTAAACGAGA,0.441
12,TCCCCGGAAGTAGCAGAGA,0.0779
13,TCCCGCTAAGTCCGAGAGA,0.232
14,TCCCCCGGAGTGAGTGAGA,0.235
15,TCCCTGAGAGTTGCAGAGA,0.332
16,TCCCAGCGAGTTCACGAGA,0.0968
17,TCCCTTTCAGTTTAAGAGA,0.398
18,TCCCGTATAGTCTTTGAGA,0.0376
19,TCCCCGCGAGTCTGCGAGA,0.207
20,TCCCGGTGAGTGAGAGAGA,0.484
21,TCCCGTAGAGTAGGGGAGA,0.081
22,TCCCGAGGAGTAAGTGAGA,0.204
23,TCCCTAGGAGTCGGTGAGA,0.203
24,TCCCCATAAGTACGGGAGA,0.084
